Reference: the supplement of paper PMC11417369
Some of the results follow.

system: PfHDP1 homeodomain (GST-tagged); assay: gcPBM binding intensity (ln(normalized median fluorescence intensity)); higher = stronger DNA binding
How it was run: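 The binding buffer was 1× PBS containing 1% milk, 0.2 mg/ml BSA, 0.5% salmon testes DNA and 0.03% Triton X-100. In it, GST-tagged P. falciparum DNA-binding domains expressed in E. coli were applied for 1 h to an Agilent 4 × 180k array of primer-extended double-stranded 36-bp intergenic genomic probes plus negative controls. Binding intensity, read with Alexa488 anti-GST antibody and a 488 nm scan, is the highest Masliner-normalised natural-log median intensity across replicate spots of either probe orientation.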

Row | Sequence | gcPBM binding intensity (ln)
1 | TTTTTTTGCATGAGCAATAAAAAAGGCTTGTTCAAA [CACACA_negctrl_site1615] | 7.43
2 | CACCCACCCAGACACACACACACACCCCCACCCATA [CACACA_site367] | 6.88
3 | AAAAAAATAATGTATATATAAATTTATTTACATATG [GTGCAC_negctrl_site107] | 6.07
4 | TATATATTTAGTTAGTGTACAAGTTATTTAGTAGTT [XGTACX_site5133] | 6.76
5 | CATATTTTCTTGTGTACACATTTATTTTATACTATA [CACACA_site6032] | 8.85
6 | CAAATAAATTAAAGGTGTACTTTTATAGTTACGACA [XGTACX_site3926] | 6.01
7 | TAAAAAATAAGATATACACACATATATTTATTTATA [CACACA_site7158] | 6.28
8 | TAAAAAATTTTCGCGTGTACGCAAGAAAAAAAAAAT [XGTACX_site3058] | 6.35
9 | TTTTTGCCATATTACACACACACATGGAAACCCCCT [CACACA_site4994] | 7.58
10 | AAAGAGAACATAAGTACACACATGTTCTTTTAGTAA [CACACA_site2824] | 6.01
11 | ATAAATATGTATTGCTGTACATATATATAAATTATC [XGTACX_site8411] | 6.37
12 | AATAGGAAAACCTATACACACTTTAAAAAAAATATA [CACACA_site4977] | 6.14
13 | AAAAAAAAAAAAAAAACACACAAAAGCAAGAAAAAC [CACACA_site3198] | 6.61
14 | AAAGTAAAAACACATACATGCATATACACATATAAC [TGCATGCA_site341] | 7.18
15 | AAATATTTAAATATTATGTATGATTATATATATATA [CACACA_negctrl_site590] | 8.88
16 | AAATAAATAAATAAATGTACACATATATATATATAT [XGTACX_site7787] | 9.45
17 | TTTCTTATTTTTTTCACACACTAAACATTTCAAATG [CACACA_site5259] | 7.01
18 | TCAATAAGATTATAAAGTACTTTTGAAGATATTATA [XGTACX_site7489] | 6.13
19 | CTTAATATATGTGGCACACATGTGGAGTCCTATTAA [CACACA_site4281] | 6.7
20 | AAAAAAATATTAATGTGTACATAATAATAACATATA [XGTACX_site8319] | 6.55
21 | TATAAAATTCTGACTTGTACATGTGAAAAATAATTA [XGTACX_site1396] | 6.48
22 | AAAGATGGAAAAAAAAATTTGTGTGTTGAAAGATAT [GTGCAC_negctrl_site19] | 6.82

Row | Sequence | gcPBM binding intensity (ln)
23 | GCGTTGTTTTTAAAAAGTACATTTTTATATAAGTTA [XGTACX_site8780] | 6.37
24 | AAAATACAATTTCTAGCACACAAAATATTATTATAA [CACACA_site9056] | 6.29
25 | TATATATATATATAATGTACACATTTTTATAACTAT [XGTACX_site5714] | 9.14
26 | ATAATAAAAATATACTGTACATTTGTAAATTCTTTT [XGTACX_site4655] | 6.11
27 | TAAAACATATAAAGGTGTACGCCTTTTTGTATCAAT [XGTACX_site6064] | 6.2
28 | TTATAGAGCTTATTCACACATACATATGTATTTATA [CACACA_site5775] | 6.87
29 | GTCTACTACACTAAATGTACAAGAAAAAAGAAAAAA [XGTACX_site4660] | 6.31
30 | TATATTTGTTGACACACACACAAAAAAAAAAAAAAA [CACACA_site7211] | 6.32
31 | AAGAGTAAAATATGGTTGCACTAAAAATATATATTT [GTGCAC_site9484] | 8.8
32 | TATTTATATATTTATGCATGTTATAGGCAAAAATGT [TGCATGCA_site397] | 6.27
33 | TATATTGATGATGATAGTACGTATGAATACAAAAAA [XGTACX_site4] | 6.47
34 | GTAGATATTTATTGAGTGCATGTTATAAAGGGAAAA [GTGCAC_site9481] | 7.83
35 | TTTTTTTTATGGAAACGTACATACATACATTAAAGA [XGTACX_site7401] | 6.36
36 | TTTTTATTTTTTTACAGTACATAAAATAAATAAATA [XGTACX_site6596] | 6.27
37 | TTGGTGATATTTTTCTCACACATTTACCAGAGATGT [CACACA_site4684] | 6.39
38 | TTTGTTTTTTTGAGAGTGCAATATATATAAAAAGGG [GTGCAC_site9691] | 9.35
39 | CATAATAAGTATAACGTTAGTTACAAACAGCTTGTT [CACACA_negctrl_site937] | 6.54
40 | TTTTTAAATAAATGTTTTTATTATATACATATCAAT [TGCATGCA_negctrl_site423] | 6.22
41 | AAAATAATGTATATAGTGCAAATGAAAACGAAAAAA [GTGCAC_site9455] | 9.04
42 | TAAAAATATAAAAAGTGTACAATATATAAATTAATA [XGTACX_site1606] | 6.71
43 | ATATTAAAAAAATATGCATGCAAATATTATTTTGTA [TGCATGCA_site191] | 6.42
44 | TATTTAATTAATATAATATTAAACGGAAAAGATAAA [TGCATGCA_negctrl_site148] | 6.93

Row | Sequence | gcPBM binding intensity (ln)
45 | TTTTTCTTTTTTTTTTTAATAATATATAACAAATTT [CACACA_negctrl_site1724] | 6.24
46 | AATCAAATTTTCAAGTCGCACCAAACAAAAAAATGA [CACACA_negctrl_site1397] | 6.84
47 | ATGTTATATTTTTTTATACACACTGGGATATATAAA [CACACA_site6244] | 6.93
48 | TTCATTGTGTTAACGGTGCATATATTTTTTCACCGT [GTGCAC_site9464] | 9.4
49 | ATAAACAAAAAAAAAAAATATATCAATATATATATA [CACACA_negctrl_site299] | 8.7
50 | AAAATATATAATTTTTAACACACAAAAAAAAAAAAA [CACACA_site9192] | 6.31
51 | AGTCATAAATTTATTTGTACATATAATATATATATA [XGTACX_site8489] | 8.35
52 | GTCCTTACTAATTAATTTTAGGCCATATAGTTTGTC [XGTACX_negctrl_site199] | 6.63
53 | ATATTACAAATATAATGTACAAAATATAAATATGCA [XGTACX_site8106] | 6.34
54 | GTTATACACATATATACACACATATGTAAATATATA [CACACA_site9080] | 7.66
55 | CTAATATATGTATGCACACACAATATATACATATTT [CACACA_site3360] | 9.57
56 | CATTAATTTAATAAATGTACATAAAATATATATTAT [XGTACX_site8085] | 7.49
57 | TAAAATTTACAACACTGTACTTGAATTTATCTTTAA [XGTACX_site241] | 6.02
58 | GCAGTATGCGATCAGTGTACGAGTTATTTTATAAAA [XGTACX_site4764] | 6.36
59 | TTATAATCTATACATATATATGTATGTATGTCTCAA [CACACA_negctrl_site1702] | 6.49
60 | AAATGCGTATATAACGCATGTATAAGAACATTTTTT [TGCATGCA_site225] | 6.28
61 | ACATCATTTTTATGTACACACACATATACGTTGAAT [CACACA_site5095] | 7.08
62 | GAAGTATTATTAAAGCTGCACTTTTCTAAAATAAAC [GTGCAC_site9429] | 6.69
63 | TGTTATATATAAATTTGTACACATAAATATTTTTAC [XGTACX_site5873] | 6.76
64 | AATAAAAAAAAATGCACACATATATATATATATATA [CACACA_site2421] | 9.87
65 | TTTTTATTTATATGTATACACACTTTAATTAAAAGT [CACACA_site2525] | 7.09
66 | CAGAATATATTCTATACATGCAATAGGAAATGTAGC [TGCATGCA_site110] | 6.98

Row | Sequence | gcPBM binding intensity (ln)
67 | AAAAAAAAAAAAAAAAGTACAAAAATATATATGCAT [XGTACX_site8392] | 6.48
68 | TATGCACAGAAACACACACACACAACCAAAAAATAA [CACACA_site5425] | 8.96
69 | CTATAATGTTTCTTTCAACACACAAAAAATGAACAC [CACACA_site8438] | 7.14
70 | CATACGTTCTAATATATACACACCTGGTATTAATTA [CACACA_site2221] | 6.7
71 | AATATATAATTTTTAACACACAAAAAAAAAAAAAAT [CACACA_site3581] | 6.34
72 | AAAAAAAAAAAAAAAACACACACATATAATATATTT [CACACA_site8369] | 6.77
73 | TCATTCTAAATATAAACACACATAAATATATACATT [CACACA_site3354] | 6.69
74 | ATTGCGTGATAATAATGTACAAAAAGTAATTTATAT [XGTACX_site8339] | 6.24
75 | GGTACGTATTTCAATGCATGTCCATGTACATATAAA [TGCATGCA_site208] | 7.08
76 | ACATACATACATACATACATACATACATACATACAT [XGTACX_negctrl_site315] | 7.62
77 | TATAATATATCTGTAACACACAAAAGTTATATACTT [CACACA_site5578] | 6.44
78 | TTTTTTTCTCTCTCTACACACAAGGTTTAATTTAAA [CACACA_site1690] | 6.81
79 | AACTCACGAGGACACACACACATATATATATATATA [CACACA_site4711] | 9.36
80 | TCATAGGGGTAGAAGGTGCAATAAAAAAGAAGAAAA | 9.84
81 | ATAAATATGTTCTGCACACAAATAAGTGTTTGAAGT [CACACA_site3892] | 8.63
82 | GAATTTCAACAAAGTAGTACATTTTATAGTAATTGG [XGTACX_site2319] | 6.11
83 | TAATGGAATAAAAATTGTACATATTTTTTTTTTTTT [XGTACX_site7669] | 6.34
84 | TGTAGTCTGGAGAAACGTACATAGTATCTGGTAGCT [XGTACX_site2538] | 6.33
85 | AAATTTTCTTAAGGTTGTACTTTTTGAAAATAATCT [XGTACX_site4894] | 6.01
86 | TTTTTATATATATGTATAAATATTTTTTCTATTTAT [XGTACX_negctrl_site606] | 6.46
87 | ATATTTATAATATAGAGTACTTACTAAGTTATGGGT [XGTACX_site5405] | 6.69
88 | AATGTGTAGGTAAGATAATTTTTGTTTTTTTATTTG [CACACA_negctrl_site424] | 6.48
